From PubChem BioAssay AID1508624 (National Center for Advancing Translational Sciences (NCATS), 2021)
In all, about 48,000 compounds went through this assay and about 120 (0.25%) were called active. About 4% were inconclusive and are not listed. Calls come from the whole dose curve; as a rule, active = well fitted activation curve with a large enough effect; inconclusive = small, poorly fitted or top-dose-only effect, or another doubt; inactive = no such curve, though single readings can be large or run the other way. This is one part of the list.

Experiment: Primary qHTS for Identification of Small Molecule Activators of Huntingtin-Antisense Promoter Activity; note: nearly all actives have a fitted effect of over 55% in size
Details: HEK293 HTT-AS promoter firefly luciferase reporter, 24 h; series mostly up to 57.5 µM; activity change, positive = activation: at the top concentration
Method in brief: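 HEK293 luciferase promoter-reporter cells (2,500/well) plated 24 h, then compounds added at up to 57.5 uM final for 24 h at 37 °C. Firefly luminescence by Dual-Glo, normalized to vehicle (0%) and zero RLU (-100%).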

| Compound | activity change, positive = activation |
| --- | --- |
| Cc1cccc(-c2nc(SCC(=O)Nc3cccc(C(F)(F)F)c3)n3[nH]c(=O)cc3n2)c1 | inactive: -14.3% |
| Cc1cc(C(=O)NCc2ccccc2C)c2c(C)nn(-c3cccc(F)c3)c2n1 | inactive: -12.5% |
| CCOC(=O)C1=C(CN2CCN(CC)CC2)NC(=O)NC1c1ccc(Cl)cc1 (stereo not drawn) | inactive: -3.91% |
| CCCCCCn1c(CNC(=O)c2ccccc2)nc2ccccc21 | inactive: -18.9% |
| CCCn1c(=O)sc2cc(NC(=O)c3ccccc3OCC)ccc21 | inactive: -4.45% |
| CC(C)Sc1ncc(Cl)c(C(=O)Nc2ccc(S(=O)(=O)Nc3ncccn3)cc2)n1 | inactive: -11.3% |
| Cn1c(=O)cc(SCC(=O)N2CCN(c3ccccc3F)CC2)c2cc(Cl)ccc21 | inactive: -3.11% |
| COc1ccc(CNC(=O)CSc2n[nH]c(-c3ccc(OC)cc3)n2)cc1 | inactive: -34.8% |
| CC(C)c1ccc2c(c1)-c1ccccc1S(=O)(=O)N2CC(=O)N1CCCCC1 | inactive: 29.6% |
| COc1cc(Cn2c(=O)sc3ccccc32)ccc1OCCC(C)C | inactive: -23% |
| Cc1cc(Cl)ccc1OCC(=O)Nc1c(C(=O)c2ccccc2)oc2ccccc12 | inactive: -13.3% |
| O=C(CSc1ncc(-c2ccccc2)[nH]1)Nc1cccc(C(F)(F)F)c1 | inactive: -2.67% |
| Cc1ccccc1-c1nc(CS(=O)(=O)CC(=O)Nc2cc(Cl)cc(Cl)c2)c(C)o1 | inactive: -39% |
| CCn1nc(C)c(CCN(C)C(=O)Nc2cc(C)cc(C)c2)c1C | inactive: 5.13% |
| O=C(Nc1cnc(N2CCC(N3CCCCC3)CC2)c(C(=O)O)c1)c1ccc(Br)cc1 | inactive: -6.97% |
| Cc1ccc(CSc2nc3ccc(NC(=O)COc4ccc(F)cc4)cc3s2)cc1 | inactive: -3.63% |
| COc1ccccc1NC(=O)c1c(NC(=O)Cc2ccccc2)sc2c1CCC(C(C)(C)C)C2 (stereo not drawn) | inactive: 15.4% [at 11.5 µM, percent change from vehicle, -100% = no light] |
| CCc1ccc(CNC(=O)Cn2c(-c3cccs3)cc3cc(F)ccc32)cc1 | inactive: -34.5% |
| COc1ccc(-n2c(=O)c3c(c4cc(OC)ccc4n3C)n(Cc3ccc(F)cc3Cl)c2=O)cc1 | inactive: -17.3% |
| COc1ccc(-c2cc(C(C)=O)c(C)n2CCC(=O)Nc2ccc(C(F)(F)F)cc2)cc1 | inactive: -41% |

| Compound | activity change, positive = activation |
| --- | --- |
| Nc1nonc1C(=O)NCCNCc1ccc(Cl)c(Cl)c1 | inactive: -10.2% |
| COc1ccccc1NC(=O)Cn1c(=O)n(Cc2ccccc2)c(=O)c2c3c(sc21)CN(C(C)=O)CC3 | inactive: -10.1% |
| CCn1ccc2c(OCC(=O)NCc3ccc(C)cc3)cccc2c1=O | inactive: -23.1% |
| Cc1cc(C)nc(-n2nc(C)c3c2NC(=O)CC3c2cc(F)ccc2F)n1 (stereo not drawn) | inactive: -7.35% |
| CCN(Cc1ccccc1)C(=O)CN1C(=O)COc2ccc(S(=O)(=O)N(CC)CC)cc21 | inactive: -25.4% |
| Cc1ccc(C)c(N2CCN(C(=O)CCn3c(=O)c4cccn4c4cccnc43)CC2)c1 | inactive: -17.9% |
| COc1ccccc1Nc1nc(-c2ccccc2Cl)c2cc(Br)ccc2n1 | inactive: -10.1% |
| CC1=C(C(=O)Nc2ccc(Cl)cc2)C(C(C)C)n2nc(SCc3ccc(Cl)cc3)nc2N1 (stereo not drawn) | inactive: -9.86% |
| COc1ccccc1CNC(=O)Cn1c(=O)oc2cc(S(=O)(=O)NCc3ccccc3)ccc21 | inactive: -33.8% |
| O=C(NCC1CCN(Cc2cccc(Cl)c2)CC1)c1cc2ccc3cccnc3c2[nH]1 | inactive: -8.45% |
| COc1ccc(OC)c(CCNC(=O)C2=C(C)C(=O)OC23CCC(C)CC3)c1 (stereo not drawn) | inactive: -16.8% |
| O=C(Cn1nc(C(F)(F)F)c2c1CCC2)Nc1ccc(Cl)cc1 | inactive: -29.3% |
| Cc1cc(C)c2c(CC(=O)Nc3ccc(S(=O)(=O)Nc4ncccn4)cc3)coc2c1 | inactive: -2.56% |
| Cc1ccccc1CCNC(=O)C1CCN(c2nc3ccccc3nc2C(F)(F)F)CC1 | inactive: -6.9% |
| COC(=O)c1cc(NC(=O)c2sc3ncn(Cc4cccc(F)c4)c(=O)c3c2C)cc(C(=O)OC)c1 | inactive: -7.76% |
| CCOc1ccc(C(=O)NCCn2cc(SCC(=O)Nc3ccccc3)c3ccccc32)cc1 | inactive: -61.6% |
| COc1cc(CN(C(=O)c2cccc(C)c2)c2ccccn2)cc(OC)c1OC | inactive: -22.6% |
| Cc1ccc(-n2c(SCC(=O)NCc3ccccc3)nc3c([nH]c4ccccc43)c2=O)cc1 | inactive: -16.9% |
| COc1ccccc1NC(=O)CCS(=O)(=O)c1cc2c3c(c1)CCN3C(=O)CC2 | inactive: 2.29% |
| O=C(NCc1ccccc1Cl)c1cc(=O)[nH]c2ccc(S(=O)(=O)N3CCCCC3)cc12 | inactive: -11.1% |

| Compound | activity change, positive = activation |
| --- | --- |
| CC[C@@H]1C=C(C)C[C@H](C)C[C@H](OC)[C@H]2O[C@@](O)(C(=O)C(=O)N3CCCC[C@@H]3C(=O)O[C@H](C(C)=C[C@@H]3CC[C@H](Cl)[C@H](OC)C3)[C@H](C)[C@@H](O)CC1=O)[C@H](C)C[C@H]2OC | inactive: -6.95% |
| CCC1CCCCN1C(=O)c1nn(-c2ccc(OC)cc2)c(=O)c2c1c1ccccc1n2C (stereo not drawn) | inactive: -8.05% |
| Cc1ccc2c(c1C)NC(=O)CC2c1ccc(Cl)cc1Cl (stereo not drawn) | inactive: -33.3% |
| CCC(O)c1cc2c(cc1NC(=O)c1ccccc1F)OCCO2 (stereo not drawn) | inactive: 3.18% |
| O=C(CC1N=C2c3ccccc3N=C(SCc3cccc(F)c3)N2C1=O)NCc1ccc2c(c1)OCO2 (stereo not drawn) | inactive: -12.9% |
| Cc1ccc(OCC(=O)Nc2cccc(C(=O)OCc3cc(=O)n4nc(C)sc4n3)c2)cc1 | inactive: -39.4% |
| OCCOCCN1CCN(C(c2ccccc2)c2ccc(Cl)cc2)CC1 (stereo not drawn) | inactive: -0.307% |
| O=C(O)c1ccc(NC(=O)c2cn(-c3ccccc3)nc2-c2ccc(Br)cc2)cc1 | inactive: 3.48% |
| COc1cccc(CNC(=O)C(=O)Nc2ccc3nc4n(c(=O)c3c2)CCCCC4)c1 | inactive: 2.89% |
| Cc1ccc(N2CCN(C(=O)c3cc(S(=O)(=O)N4CCCCC4)c[nH]3)CC2)c(C)c1 | inactive: -9.33% |
| Cc1ccc(-c2cc(C(=O)Oc3ccccc3Cl)no2)cc1C | inactive: 2.92% |
| CCc1ccc(C(=O)Nc2cc(CN3CCN(C)CC3)cc(C(F)(F)F)c2)cc1C#Cc1cnc2ccnn2c1 | inactive: -30% |
| Cc1ccc2nc(Cl)c3cc(C(=O)NC4CCC(C)CC4)sc3c2c1 (stereo not drawn) | inactive: 0.577% |
| Cn1c2ccccc2c2c3c(c4c5ccccc5n(CCC#N)c4c21)CNC3=O | inactive: -40.4% |
| CCc1cccc(C)c1NC(=O)Cn1ccn(Cc2ccc(Cl)cc2)c(=O)c1=O | inactive: -15.1% |
| COc1ccc(NC(=O)CN(C)S(=O)(=O)c2cnc[nH]2)cc1Cl | inactive: 0.148% |
| Cc1ccc(-c2[nH]c(-c3ccccc3)nc2SCC(=O)NCC2CCCO2)cc1 (stereo not drawn) | inactive: -19.7% |
| Cc1cc(CCCOc2c(C)cc(-c3noc(C(F)(F)F)n3)cc2C)on1 | inactive: -7.2% |
